Reference: the supplement of paper PMC3334620
Over roughly 33,000 sequences, “E-score (-0.5 to 0.5)” has its median near -0.011; the highest 2% begin near 0.28. The list shows a part of the results.

target: T1, Gcr1 (UniProt P07261); test: PBM E-score (8-mer binding enrichment) (E-score (-0.5 to 0.5)); higher = stronger / more preferred TF binding; most listed sequences are background and not binding sites; settings: protein concentration: 100 nM; construct: GST-full length
T1 sequence: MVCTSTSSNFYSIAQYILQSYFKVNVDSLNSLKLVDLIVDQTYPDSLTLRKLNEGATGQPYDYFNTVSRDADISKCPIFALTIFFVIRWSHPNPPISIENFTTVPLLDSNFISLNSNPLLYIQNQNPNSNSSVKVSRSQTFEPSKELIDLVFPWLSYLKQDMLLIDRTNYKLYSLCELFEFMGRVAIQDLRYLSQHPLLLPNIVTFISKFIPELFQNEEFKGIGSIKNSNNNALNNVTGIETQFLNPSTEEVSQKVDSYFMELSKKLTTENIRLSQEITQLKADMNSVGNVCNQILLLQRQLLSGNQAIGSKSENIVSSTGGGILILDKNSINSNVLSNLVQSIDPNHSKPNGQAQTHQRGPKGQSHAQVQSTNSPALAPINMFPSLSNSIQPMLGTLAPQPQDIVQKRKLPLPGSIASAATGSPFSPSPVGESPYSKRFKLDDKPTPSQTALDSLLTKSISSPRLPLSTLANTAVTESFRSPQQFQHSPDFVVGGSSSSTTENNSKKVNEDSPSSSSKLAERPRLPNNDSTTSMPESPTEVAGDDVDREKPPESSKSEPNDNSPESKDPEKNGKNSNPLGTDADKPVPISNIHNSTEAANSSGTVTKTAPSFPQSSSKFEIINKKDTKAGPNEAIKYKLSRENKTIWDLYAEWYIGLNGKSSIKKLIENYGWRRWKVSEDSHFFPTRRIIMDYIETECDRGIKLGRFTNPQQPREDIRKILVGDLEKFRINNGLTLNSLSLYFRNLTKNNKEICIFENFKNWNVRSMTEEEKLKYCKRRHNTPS
Outline: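 Full-length yeast transcription factors or their DNA-binding domains, GST-tagged and expressed with PURExpress, were applied at about 100-200 nM to universal all-10-mer Agilent arrays. These arrays had been made double-stranded by primer extension on fresh or once-stripped slides. Detection used fluorescent anti-GST, normalisation used masliner, and E-scores for ungapped eight-base words pooled with reverse complements came from the Universal PBM Analysis Suite.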

Sequence	PBM E-score
AAATGGGG	0.204
AATTCGTC	0.037
ATCAATAG	-0.0521
CTCCCTCA	-0.0385
AACCCTTC	-0.00367
CTAGAGTA	-0.037
ACGCTTGA	0.0746
ACCGCATG	-0.164
AGGCGCCG	0.354
AGTGTTAC	-0.114
AAGGCCGT	-0.115
CTTTTAAA	0.00459
ATTACCTG	-0.148
CCGCAGCA	0.114
ATGGGACG	0.0597
CAAAGGGC	-0.139
CATGCTCG	-0.0657
AAGGCTTA	-0.426
AAATGGCA	0.0603
GTAGTATA	0.0704
TCCGTTCA	-0.112
AGAGTACG	-0.027
CCAGCCGC	-0.0253
AGATTAAA	0.137
CCATTGAC	-0.109

Sequence	PBM E-score
ATTCTAAA	0.125
GAGGGACA	-0.0898
ATGTTAAT	0.128
ATAAGGGA	0.128
ATCGGAGC	-0.0617
CGAAGGAA	-0.0303
AACGTAAT	-0.129
AGGCTCGC	-0.213
AGAACTCA	-0.0249
ACCCGTAC	-0.254
ATAAAGGC	0.074
AATTAGAA	0.279
ACATGTCA	-0.175
AGGCGGGC	-0.112
ACTGACCC	-0.321
CGGGTCTA	0.0247
AGTAGTGG	0.253
ACACGCAA	0.127
GCAACCCA	0.197
GCCCCGGA	0.0598
GACACTTA	-0.0835
GCTGCAGA	-0.0246
ATGTCAAA	-0.036
AAACACTT	-0.0959
AACGCGAG	-0.101

Sequence	PBM E-score
TAGGATCA	-0.0968
AACTGCAG	0.0233
GTTATTAA	0.0393
AGTGATCA	-0.0788
AGACGTAT	0.0564
GGCGCACC	-0.233
CCAAACCA	0.106
CAGACACC	0.00535
CAAAGTGA	-0.0881
CAACCCCA	0.0532
AGTTTGAT	-0.0282
GAATCGGA	0.011
CTAGTCCA	-0.0623
CCCGACCG	-0.317
CGGTCTCC	-0.134
ACGATACG	0.116
CGAAGGGA	-0.275
GGCAACGA	-0.124
CCCGGACC	-0.0455
CCGCGGAA	0.1
CACCGTGC	-0.16
ATGTTCCC	-0.0387
AACTGCAA	0.106
AATACCGT	0.00513
CTCTGACA	0.0673

Sequence	PBM E-score
TCAGTACA	-0.0408
GCCGTGCC	-0.0428
CATAAAGA	0.00123
CTACGAAA	0.014
AGCACCAC	0.235
CGACAATC	-0.0716
AGGAAAGC	-0.0635
ACTAAAGT	0.111
CGGATGCA	0.0929
GAATTTGC	0.0352
GGTGAGAC	-0.166
AGTCTTCC	-0.193
CCCCGTCA	-0.0451
ATTCCAGC	0.299
ACGTATAA	0.132
ACCCCTAG	-0.109
ATAGGCGC	0.206
CTTGAAGC	-0.107
GAACTCAC	0.0724
CTCAATGA	-0.0746
CCCCGTAG	-0.142
AGTGGCAG	0.287
ATTATATG	0.11
GGTTCTCA	0.122
CACTTCGG	0.046

Sequence	PBM E-score
CATCCAAA	0.298
CGTGCGAC	-0.204
TAGGACCA	-0.081
ATCTCACA	-0.0169
CCAATATC	-0.0269
ACCTACCC	-0.188
GTCCGGGA	0.18
ATAATTCC	0.0569
TAACATTA	0.0557
AGCAAAGC	-0.192
CCTCACGA	-0.183
TGCGAAAA	0.117
ATTATTGA	-0.0804
CCCCGTAA	0.174
GAGCCTAC	-0.0361
ATGAAACG	-0.0222
CCAGCCAC	0.0313
AGAATGCT	-0.303
AAATGTTG	0.00832
TACATGGA	-0.0102
AAGAGAGG	0.0766
GAAAAGTC	-0.0948
AGACGTTG	-0.00101
ACCGGAAC	0.203
ACCCGTTG	-0.0283

Sequence	PBM E-score
CTTTGCAA	0.0548
CCTCTCAG	-0.044
GACTCCGC	0.0149
GGCGCTAA	0.187
GTCGGGCA	-0.0244
ACCTAGAG	0.0421
ACTTTAGG	0.06
AAATCGAT	-0.0115
CAAGCGCC	-0.0572
CACAGGAC	-0.203
AGGGTTGC	-0.0512
AGTAGTTC	-0.0167
CGCTCCAG	-0.0241
GAGTGCGC	-0.155
ATCACGTG	-0.0141
ATAATATA	0.111
AATTAATA	0.158
ACGCTGTG	-0.244
ACTCAAAT	0.0379
ACAACAAC	-0.138
GACTTAAC	-0.238
TCAGAGCA	-0.0359
AAATTCCA	0.208
GCACGGCA	-0.0387
GGGAGGTA	-0.103

Sequence	PBM E-score
ATATGATA	0.133
AGCCGCTA	0.0724
CATCAGGA	0.197
CTGGCCCA	-0.166
AGGTGTCG	-0.11
CAACTTAC	-0.127
AATCAAGC	-0.0406
AGACACCC	-0.118
CATAATCA	-0.0462
CCTCTCTC	-0.145
ACTGATGC	-0.187
AGTGTCTG	-0.103
CCGGCTTC	0.358
AAGTTGAT	0.00575
GAGGGTGC	0.141
CGCATGAC	-0.0723
TCGTGCAA	-0.104
AAGCTTCG	0.129
ACTTATTC	-0.238
ACCCGGTC	-0.124
CTGTTAAG	0.0142
CACCGCTA	-0.0694
